# Measurements from the supplement of paper PMC3334620.
# The full ranking holds about 33,000 sequences; the median of “E-score (-0.5 to 0.5)” is about -0.017, and the highest 2% start at about 0.3. The list shows a part of the results.
# Molecular target: T1, Sut1 (UniProt P53032)
# T1 sequence: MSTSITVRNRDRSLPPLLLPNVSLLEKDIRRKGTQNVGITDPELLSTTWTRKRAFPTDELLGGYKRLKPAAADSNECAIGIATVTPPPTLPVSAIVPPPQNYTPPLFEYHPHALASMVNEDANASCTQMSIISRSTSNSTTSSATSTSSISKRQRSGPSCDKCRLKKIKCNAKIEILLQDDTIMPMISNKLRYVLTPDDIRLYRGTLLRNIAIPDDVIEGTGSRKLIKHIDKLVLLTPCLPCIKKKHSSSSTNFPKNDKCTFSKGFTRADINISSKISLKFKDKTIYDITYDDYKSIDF
# Assay: PBM E-score (8-mer binding enrichment) (E-score (-0.5 to 0.5)); higher = stronger / more preferred TF binding; most listed sequences are background and not binding sites
# Conditions: protein concentration: 200 nM; construct: GST-full length
# Procedure, shortened: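 GST-tagged yeast TFs (full-length or DNA-binding domain) were made by PURExpress in vitro transcription/translation and applied at about 100-200 nM to universal all-10-mer Agilent arrays. The arrays were made double-stranded by primer extension, on fresh or once-stripped slides. Bound protein was detected with fluorescent anti-GST, and scans were normalised with masliner. Each ungapped eight-base word, pooled with its reverse complement, received an E-score (modified Wilcoxon-Mann-Whitney statistic) from the Universal PBM Analysis Suite.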
row,Sequence,PBM E-score
1,TAGTTCGA,0.0733
2,TCCAACGA,-0.21
3,ACCGAAAC,0.132
4,CTAGATTA,0.189
5,CAGTACGA,-0.0772
6,CTTAGGGC,-0.139
7,GCGCGAAC,-0.0862
8,CAAAGTCG,0.0112
9,AGTGGTAG,-0.224
10,ATTGTGCC,0.0156
11,ATGGTAGG,0.0487
12,CCTAAACA,-0.163
13,ATATCCAA,0.158
14,TAGTCTAA,0.042
15,AATTGTTC,0.239
16,CCGAGCGC,0.163
17,TTCTCCAA,-0.0873
18,CGCTAACG,-0.00974
19,GCAAGGCC,-0.151
20,GCAAGTAC,-0.133
21,AATCGATC,-0.0774
22,AAGACAAG,0.0135

row,Sequence,PBM E-score
1,GAAAGGGC,0.00203
2,CGTGGGTA,-0.245
3,CTTGTCAC,-0.139
4,AGCATGAC,-0.147
5,AGATGTGG,-0.12
6,CTGAGTCC,0.0245
7,CACACTGA,-0.183
8,GTCGCCCA,-0.239
9,ATATAGGG,-0.126
10,AACCCGCC,-0.148
11,GTGATGTA,0.144
12,GGGAGACC,-0.235
13,GTACAGAA,0.0825
14,CTCACGCC,-0.154
15,GGTTAAAA,0.0081
16,TGCCTTAA,-0.149
17,CTACTACC,0.00978
18,ACACGTAA,0.135
19,AAACGACG,0.0276
20,GCCGGGAA,-0.172
21,AACCTAGG,0.00049
22,GATCCTGA,-0.0133

row,Sequence,PBM E-score
1,CCGAGGGC,-0.0115
2,CAGCATCC,-0.0618
3,TACCCCCA,-0.175
4,AGCCTTAC,-0.205
5,CGTGCTGA,-0.0837
6,GAGAACTA,0.0931
7,CACCCAAG,-0.135
8,TCATAGCA,-0.053
9,CAAGATCC,-0.0536
10,CGGGGCAG,-0.175
11,CCGACGAG,0.0455
12,CTTGAATC,0.0164
13,CTGGAGGA,-0.248
14,TGCGGTAA,-0.0328
15,CACGGCCA,-0.119
16,CCTATGCC,-0.289
17,GGAGGGGA,-0.307
18,GCCAACAA,0.0741
19,CCAGCAAG,-0.274
20,ACCGGTCC,0.0275
21,CCTCTGTA,-0.21
22,GACTAACA,0.124

row,Sequence,PBM E-score
1,AAGTCGTG,-0.00181
2,AGCAGACC,-0.0654
3,GAGGTAGC,-0.201
4,CGGTCACA,-0.102
5,ACAAAACG,0.244
6,AATAGTGT,0.269
7,AAGGCCTT,-0.268
8,GCATCCAA,-0.0982
9,CGACTACC,-0.0971
10,ATGCGACC,0.148
11,ATGGTTAA,-0.00798
12,CTTGTTAC,0.109
13,AGCAAGTG,-0.223
14,CATTCGGG,-0.0375
15,ATTGGAGG,-0.226
16,CATGAAGG,0.0652
17,AATTTATA,0.276
18,CCGTCTCA,-0.0728
19,GCGCGTCA,-0.00075
20,ACTAGCTC,0.156
